The least precise scores are not listed. Not listed are two conditions whose scores span a narrow range. Names with del lack the residues named; names with ins carry added residues between the positions named. For some assays here: The concentration of ogerin is not given here.
B1: GPR68, Q15743 (parent)
chain: MGNITADNSSMSCTIDHTIHQTLAPVVYVTVLVVGFPANCLSLYFGYLQIKARNELGVYLCNLTVADLFYICSLPFWLQYVLQHDNWSHGDLSCQVCGILLYENIYISVGFLCCISVDRYLAVAHPFRFHQFRTLKAAVGVSVVIWAKELLTSIYFLMHEEVIEDENQHRVCFEHYPIQAWQRAINYYRFLVGFLFPICLLLASYQGILRAVRRSHGTQKSRKDQIQRLVLSTVVIFLACFLPYHVLLLVRSVWEASCDFAKGVFNAYHFSLLLTSFNCVADPVLYCFVSETTHRDLARLRGACLAFLTCSRTGRAREAYPLGAPEASGKSGAQGEEPELLTKLHPAFQTPNSPGSGGFPTGRLA

Columns and labels:
[1] = variants of: B1; experiment: cAMP reporter score (Enrich2 score, wild type = 0); higher = more signal; HEK293T, FACS bins
[2] = variants of: B1; experiment: surface expression score (Enrich2 score, wild type = 0); higher = more signal; HEK293T, FACS bins

Variant	cAMP reporter score ([1]; pH 5.5)	cAMP reporter score ([1]; pH 6)	cAMP reporter score ([1]; pH 6, modulator: ogerin)	cAMP reporter score ([1]; pH 6.5, modulator: ogerin)	surface expression score [2]
Q182_R183insGSG	-0.492	-0.86	-0.278	-1.11	-1.09
F190N	-1.03		-1.64	-0.149	
F190Q	-1.2	-0.454	-0.907	-0.806	-1.79
F190R	-1.57	-0.527		-1.76	-1.44
F190A	0.613	-0.143	0.949	0.092	0.205
F190T	-0.862			-1.37	-2.1
F190P	-1.43	-0.672	-1.84	-0.678	-2.57
F190E	-0.6	-0.482	-1.13	-1.7	-1.43
F190W	-0.776	-0.882	-0.363	-1.4	
F190S	-1.1	2.16	-0.687	-0.573	-1.42
F190C	-0.407	-0.839	-0.295	-0.4	-0.916
F190I	-0.246		0.262	0.029	-0.299
F190V	0.791	2.02	1.38	3.07	-0.323
F190L	-0.143	0.309	-0.944	-0.335	0.739
F190H	-1.3	-0.757		-0.26	-3.05
F190K	-1.74		-0.996	-1.37	-1.96
F190Y	-1.79	-1.4	-1.97	-1.54	-2.38
F190M	0.446	0.596	-0.146	-0.693	-0.068
V192E	-1.23	-0.636	-0.841	-1.3	1.38
V192A	-0.597	0.053	-0.328	-0.333	-0.066
V192D	0.227	0.745	-0.297	-0.338	-0.694

Variant	cAMP reporter score ([1]; pH 5.5)	cAMP reporter score ([1]; pH 6)	cAMP reporter score ([1]; pH 6, modulator: ogerin)	cAMP reporter score ([1]; pH 6.5, modulator: ogerin)	surface expression score [2]
V192G	0.806	3.16	1.47	0.61	-0.254
V192F	1.22	1.4	0.885	0.792	-0.175
V192C	-0.519	0.365	-0.206	-1.13	-0.73
I185_N186insG	-0.422	-1.04	-1.38	-1.66	-1.29
L191_V192del	-1.52	-1.12	-1.75	-1.36	-3.07
Q182_R183insGS	0.815	0.171		-2.09	0.212
R183_A184del	-0.853	-0.848		-2.35	-2.85
W181S	-0.361	-0.664	-0.424	-0.569	0.223
W181I	-0.884	-1.2	-2.11	-1.29	-0.614
W181N	0.301	-0.558	-0.932	-0.937	-0.496
W181Q	0.814	-0.879	-1	-1.17	0.251
W181G	-0.835		-0.664	-1.46	0.623
W181L	-1.05	-0.366	-0.727	-1.02	-0.773
W181K	0.186				0.281
W181H	-0.402	-0.34	-0.567	-0.394	
W181F	0.3	-1.39	-0.156	-1.31	0.565
W181A	1.03	-0.241	-0.253	0.128	1.3
W181C	-0.549	-0.087	-0.609	-0.567	-0.623
W181P	0.226	-0.012	-0.172	-1.03	0.249
W181M	-0.378		-0.716	-0.446	
W181V	-1.33	-1.02	-1.9	-0.871	-1.54

Variant	cAMP reporter score ([1]; pH 5.5)	cAMP reporter score ([1]; pH 6)	cAMP reporter score ([1]; pH 6, modulator: ogerin)	cAMP reporter score ([1]; pH 6.5, modulator: ogerin)	surface expression score [2]
W181R	-0.661	-1.96	0.049		1.47
W181E	2.72	0.857	-0.093	-0.818	1.02
W181T	-0.809	0.396	-1.99	-0.954	-0.069
W181D	1.96		-3.11	-1.49	-2
Y187H	-1.12	-1.05	-0.986	-1.3	-1.95
Y187I	-0.244		0.469		-0.434
Y187V	0.003	0.672	0.677	-0.27	-0.976
Y187P	-0.524	-0.425	-0.958	-0.643	-2.09
Y187N	-0.034	-0.141	0.199	-0.308	-0.899
Y187Q	0.285	0.599	0.72	0.491	-1.57
Y187M	0.398	0.081	-0.099	0.241	0.717
Y187S	0.183	-0.465	-0.115	-0.297	-1.24
Y187F	-0.896	-1.36	-0.943	-1.24	-0.446
Y187W	0.693	0.876	1.13	-0.006	0.173
Y187K	1.64	-0.534	1.39	1.2	-0.334
Y187R	0.069	-0.394	0.025	-1.07	-2.75
Y187T	0.917	-0.965	0.33	-0.679	-1.06
Y187L	-0.17	0.444	1.33	0.255	0.967
Y187A	-1.1	-1.01	-1.08	-1.21	-1.55
Y187G	0.394	0.364	0.952	-0.013	-0.391
Y187C	0.716	-0.284	-0.003	-0.401	-0.672
